# Assay results taken from publication PMC4336329 (PLoS ONE, 2015).
# The whole screen tested about 310,000 compounds, of which about 14,000 (4.5%) showed an effect of 50% or more. The effect is printed as a negative number. This is one part of the list.
# Target: human ether-à-go-go-related gene (hERG) potassium channel (human, UniProt Q12809)
# Test: primary screen, population patch clamp on CHO cells stably expressing hERG
# 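Further: peak tail current of the secondary pulse compared with the same well before compound.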
# Sequence of human ether-à-go-go-related gene (hERG) potassium channel (Q12809 whole entry, looked up): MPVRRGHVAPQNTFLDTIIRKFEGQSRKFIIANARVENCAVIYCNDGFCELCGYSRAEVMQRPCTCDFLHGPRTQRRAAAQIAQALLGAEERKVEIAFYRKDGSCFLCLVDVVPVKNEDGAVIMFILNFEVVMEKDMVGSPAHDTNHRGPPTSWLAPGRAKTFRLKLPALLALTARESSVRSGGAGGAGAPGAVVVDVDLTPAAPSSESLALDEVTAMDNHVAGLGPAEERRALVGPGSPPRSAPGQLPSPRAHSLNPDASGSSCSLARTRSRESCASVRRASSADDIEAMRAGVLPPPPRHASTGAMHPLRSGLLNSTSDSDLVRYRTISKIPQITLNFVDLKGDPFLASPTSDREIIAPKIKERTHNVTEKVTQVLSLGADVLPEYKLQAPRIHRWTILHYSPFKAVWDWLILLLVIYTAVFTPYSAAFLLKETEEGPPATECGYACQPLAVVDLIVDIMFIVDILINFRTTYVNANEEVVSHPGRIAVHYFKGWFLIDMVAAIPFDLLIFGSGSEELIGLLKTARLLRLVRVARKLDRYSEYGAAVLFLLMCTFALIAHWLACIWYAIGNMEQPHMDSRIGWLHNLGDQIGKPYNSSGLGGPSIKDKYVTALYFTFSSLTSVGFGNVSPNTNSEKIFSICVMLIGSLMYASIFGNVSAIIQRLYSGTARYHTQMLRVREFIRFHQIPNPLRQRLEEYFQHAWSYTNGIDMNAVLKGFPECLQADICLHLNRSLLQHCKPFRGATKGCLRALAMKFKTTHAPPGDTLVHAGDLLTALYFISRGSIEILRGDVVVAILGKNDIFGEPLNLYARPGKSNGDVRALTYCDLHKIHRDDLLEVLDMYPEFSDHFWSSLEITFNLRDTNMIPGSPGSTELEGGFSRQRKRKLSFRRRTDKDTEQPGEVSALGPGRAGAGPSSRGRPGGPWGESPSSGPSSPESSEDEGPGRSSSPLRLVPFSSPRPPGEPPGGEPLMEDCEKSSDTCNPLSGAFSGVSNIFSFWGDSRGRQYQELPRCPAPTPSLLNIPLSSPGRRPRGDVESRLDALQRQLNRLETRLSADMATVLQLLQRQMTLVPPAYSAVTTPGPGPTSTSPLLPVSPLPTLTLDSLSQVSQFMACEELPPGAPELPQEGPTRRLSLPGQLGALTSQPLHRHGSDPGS
row,SMILES,"hERG current change (%, negative = inhibition) at 10uM [%]"
1,O=C(Nc1ccc(-c2csc(Nc3ccc(Cl)cc3)n2)cc1)c1cc([N+](=O)[O-])cc(C(F)(F)F)c1,13.1
2,CCn1nnnc1NCc1ccc(SC)cc1,18.9
3,O=C(Cc1ccccc1)NCc1cccnc1,4.9
4,CCOC(=O)Cn1c(=O)c2c(nc(N3CCOCC3)n2C)n(C)c1=O,-4.47
5,Cc1cccc(NC(=O)NNC(=O)c2cc(-c3ccccc3Cl)nc3ccccc23)c1,2.58
6,Cc1cc(C)c(NC(=O)CCN2C(=O)c3ccccc3S2(=O)=O)c(C)c1,12.6
7,O=S(=O)(c1ccccc1)N1CCN(Cc2cccc(Cl)c2)CC1,-18.1
8,CC(O)CSc1nc2c(c(=O)[nH]c(=O)n2C)n1Cc1ccccc1Cl (centres unmarked),-5.33
9,Cc1sc2ncnc(N3CCCCC3)c2c1C,-11.9
10,Cc1cc([N+](=O)[O-])ccc1NC(=O)c1cc2ccccc2o1,16.3
11,Cc1ccc2nc(-c3cccc(Br)c3)cc(C(=O)NC3=NCCS3)c2c1,31.9
12,O=C(c1n[nH]c(=O)c2ccccc12)N1CCN(c2ccccc2)CC1,-4.74
13,N/C(=N\OC(=O)c1ccc(Cl)cc1Cl)c1cccnc1,-0.864
14,Cc1ccsc1/C=N/Nc1ncnc2nc[nH]c12,-11.7
15,COCCCNC(=O)CN1C(=O)/C(=C\c2ccc(C)cc2)Sc2ccccc21,-15.8
16,Clc1ccc(Cl)c(OCCN2CCCC2)c1,-38.8
17,COC(=O)CN(c1ccc(C)cc1)S(=O)(=O)c1c(C)[nH]c(=O)[nH]c1=O,0.0858
18,Cn1c2ccccc2c2cnn(CC(=O)Nc3cccc(F)c3)c(=O)c21,12.8
19,COc1ccc(NS(=O)(=O)c2cc(NC(=O)c3cc(=O)c4ccccc4o3)ccc2OC)cc1,-4.65

row,SMILES,"hERG current change (%, negative = inhibition) at 10uM [%]"
1,FC(F)Sc1ccc(NC(=S)NC2CCCCC2)cc1,-1.2
2,Cc1cc(C)n(C(=O)CNC(=O)c2ccc3c(c2)OCCO3)n1,2.34
3,CCSC1=N/C(=C\c2cccnc2)C(=O)N1c1ccccc1,-29.5
4,CCn1cnc2c(Nc3cccc(Cl)c3)nc(C#N)nc21,6.19
5,Cc1ccnc(SCC(=O)NC2CCCCCC2)n1,-6.97
6,FC(F)(F)c1cc(-c2cccs2)nc2ncnn12,1.4
7,C=CCn1c(SCC(=O)Nc2cc(NC(C)=O)ccc2OC)nnc1-c1ccccn1,-8.09
8,CCOc1cc(/C=N/NC(=O)C(N)=O)cc(Br)c1O,19.5
9,CCCn1c(=O)c(C(=O)NCc2ccco2)c(O)c2ccccc21,9.11
10,COc1ccc(CCN2CC(C(=O)NCC(=O)Nc3ccc(F)c(F)c3)CC2=O)cc1OC (centres unmarked),1.09
11,O=C(NCc1nc2ccccc2[nH]1)C1=C[C@H](c2ccccc2)C[C@H](OCCCCO)O1,-36.3
12,Cc1cc(C)c2nc(N3CCN(C(=O)c4ccco4)CC3)sc2c1,-28.5
13,Fc1ccc2c(c1)nnn2C1CCN(Cc2ccccc2)CC1,-61.4
14,COC(=O)c1ccccc1NS(=O)(=O)c1ccc2[nH]c(=O)[nH]c2c1,16.4
15,CCOc1ccccc1-c1n[nH]c(=S)o1,22.5
16,Cn1cc(Br)c(C(=O)NC(=S)N2CCN(c3ccccn3)CC2)n1,11.1
17,Cc1cc(C)n(C(C)CNS(=O)(=O)c2ccccc2)n1 (centres unmarked),22.1
18,CCN(CC)S(=O)(=O)c1ccc(Cl)nc1,-0.5
19,COc1ccccc1N1CCN(S(=O)(=O)CCNC(=O)c2cc(=O)c3ccccc3o2)CC1,7.33

row,SMILES,"hERG current change (%, negative = inhibition) at 10uM [%]"
1,Cc1ccc(C(C(=O)NC2CCCCC2)N(Cc2ccco2)C(=O)C2COc3ccccc3O2)o1 (centres unmarked),-6.27
2,COc1ccc(C(=O)NC2CCN(C(=O)Nc3ccc(F)cc3)CC2)cc1,-17.9
3,Cc1noc(C)c1C(=O)N1CCC(C(=O)c2ccccc2)CC1,-3.77
4,O=C(N/N=C/c1cccnc1)c1ccccc1NS(=O)(=O)c1cccs1,32.1
5,CCN(CC)C(=O)COc1ccc(S(=O)(=O)N2CCOCC2)cc1,0.481
6,Cn1cc(S(=O)(=O)CC(=O)Nc2ccc3c(c2)OCO3)c2ccccc21,-6.03
7,CCOC(=O)N1CCN(C(=O)c2cccc(NC3=NC4CS(=O)(=O)CC4S3)c2)CC1 (centres unmarked),4.31
8,Cc1nn(-c2ccccc2)c(N2CCCC2)c1/C=N/Nc1ccc(S(=O)(=O)Nc2ccccc2)cc1[N+](=O)[O-],7.3
9,CCOc1cc(/C=C/c2cccc[n+]2C)ccc1OCC(=O)Nc1ccc(C)cc1.[I-],11.1
10,O=S(=O)(c1ccc(Nc2ccc(-c3ccc4c(c3)OCCO4)nn2)cc1)N1CCCC1,5.27
11,CC1CCc2c(C(=O)Nc3ccc(OC(F)(F)F)cc3)csc2C1 (centres unmarked),-4.3
12,COCCNC(=O)C1=C(N)C(C(=O)Nc2ccc(C)c(S(=O)(=O)N3CCCCC3)c2)SC1=Nc1ccc(C)cc1C (centres unmarked),17.3
13,CCSC1=C(C#N)C(=O)n2c1cc1c2CCCC1,3.76
14,CCOC(=O)c1sc2nc3n(c(=O)c2c1C)CCC3,1.58
15,CCCc1cc(=O)oc2cc(OCC(=O)N3CCC(C(=O)O)(c4ccccc4)CC3)ccc12,6.41
16,CSc1ccccc1NC(=O)Nc1cccc(Cl)c1C,18
17,COc1ccc(C(=O)N/C(=C\c2cn(S(=O)(=O)N(C)C)c3ccccc23)C(=O)NCCN2CCOCC2)cc1,-9.75
18,C=CCn1c(SC(F)F)nc2scc(-c3ccco3)c2c1=O,11
